Measurements reported in the RNAGym collection of RNA variant scans (doi:10.1073/pnas.2313332121).
This sample is rich in variants without activity.

B1: TPR 5TU (parent)
chain: GGAUCUUCUCGAUCUAACAAAAAAGACAAAUCUGCCACAAAGCUUGAGAGCAUCUUCGGAUGCAGAGGCGGCAGCCUUCGGUGGCGCGAUAGCGCCAACGUUCUCAACUAUGACACGCAAAACGCGUGCUCCGUUGAAUGGAGUUUAUCAUG

Variants of: B1
Experiment: polymerase ribozyme fitness, log enrichment relative to wild type (log ratio); higher = more active; in vitro selection for triplet polymerase activity
Outline: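 Both subunits of a heterodimeric triplet polymerase ribozyme were given their own mutant library, built by PCR and transcribed. Each library was annealed with a biotinylated primer, the partner subunit and triplets, incubated frozen at −7 °C, and its extended constructs gel-excised, captured on streptavidin beads and amplified by RT-PCR, all in one round done in triplicate. Fitness is the logarithm of genotype enrichment relative to wild-type enrichment, with replicates averaged by inverse-variance weighting. That logarithm is base 2, and Illumina-sequenced genotypes needed ≥10 input reads and ≥1 read per output.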

Variant | polymerase ribozyme fitness (log ratio)
A19G G59C C87G C116U A122U G136A A142U U151C | ≤ -4.2
A19G G59U G84U C105G | -3.78
A19G G74C U102G | ≤ -4.2
A19G G83C | -1.11
A19G U44A A66G C76A A138C | ≤ -4.2
A19G U44A G68C C103G U104A A107U A115C A137C | ≤ -4.2
A19G U53G A120U | -2.57
A19G U90A C95G | ≤ -4.2
A19G U90C C93A C99U A107G A113C G133U | ≤ -4.2
A19G U109C G141A | -2.85
A19G U148G | -3.88
A19U A21U C85G | -2.46
A19U A21U G86A C103U | -2.31
A19U A21U G94A | -1.09
A19U A22C C27G A37G C57U C87G C96G G112C | ≤ -4.2
A19U A22C G94C C96G C123U G128A U139C U146C | ≤ -4.2
A19U A23C A26U | ≤ -4.2
A19U A23C C38U A39C G58U G92A G141C G143U | ≤ -4.2
A19U A23G G48C U55A G94A G136U G152A | ≤ -4.2
A19U A23G U45A U82A A91U | ≤ -4.2
A19U A24C C27U U53A U139C | ≤ -4.2
A19U A24C C35U C57U A66C G86U | -4.08
A19U A26U C75G C76G G94C G128U | ≤ -4.2
A19U A28C A40C A41C U44G C85A A113C | ≤ -4.2

Variant | polymerase ribozyme fitness (log ratio)
A19U A28U A52G C105G G126C G141C U148A C149U A150C | ≤ -4.2
A19U A29U A107C C108G G124A | ≤ -4.2
A19U A30C C75U G83C C95U G117U A121G | ≤ -4.2
A19U A30G G42A G46C G68U C87U A91C C132U A142C U144C A147G | ≤ -4.2
A19U A30U C36U U56G G86A G126C U144C | ≤ -4.2
A19U A37C A64G A97C | ≤ -4.2
A19U A37C C51G U56G G68A U78C A106G | ≤ -4.2
A19U A40C G81C C96G | -1.25
A19U A40U C54A A60G C96U | -2.61
A19U A40U U53A C87A G94A | ≤ -4.2
A19U A41U C54U G81C G86U C103U G126C | ≤ -4.2
A19U A41U C57A C75G G83U A106G C123G | ≤ -4.2
A19U A49C C54A G62A A119G C125U U144A | ≤ -4.2
A19U A49G C57A A60U C116U | -2.27
A19U A52G U53G G88A C93A C95A U145C | ≤ -4.2
A19U A60G G94A C99G U104G | ≤ -4.2
A19U A66G G71C G88A U104G | ≤ -4.2
A19U A120U | -0.806
A19U A137G C149G | ≤ -4.2
A19U C27U A30U C54G U56A C75G C93G C114G | ≤ -4.2
A19U C32G C54U C63A G84U G88U A89U G126U | ≤ -4.2
A19U C32G G83C U102C U144C | ≤ -4.2
A19U C35G A66G G70A G94U C114U C149G | ≤ -4.2
A19U C38A G50C G71U A98G C103A C105G | ≤ -4.2

Variant | polymerase ribozyme fitness (log ratio)
A19U C38G G59C G86A C99U G117U C118A U127A A138G | ≤ -4.2
A19U C51G G68A G83A | ≤ -4.2
A19U C54U C85A G117C G140C A150C | ≤ -4.2
A19U C54U U90C C118A | ≤ -4.2
A19U C57G C95U C103G U104G | ≤ -4.2
A19U C57G G68U G71C G128U | ≤ -4.2
A19U C57U A91U G92U C93U A142G | ≤ -4.2
A19U C57U C103G A119G C123A | -3.45
A19U C72U G86U C114G A115U | ≤ -4.2
A19U C76U C131U | 0.231
A19U C85G G92U C123U | -2.54
A19U C87A A106G G143U A150G | ≤ -4.2
A19U C96G C114U | -2.99
A19U G25U A41C G94A A142C G152A | ≤ -4.2
A19U G34U C85A C129G | ≤ -4.2
A19U G46U A89C | -2.83
A19U G48U | -0.613
A19U G48U C54G A73G G81U G92U C116G C125A | ≤ -4.2
A19U G58C C79U C96G | ≤ -4.2
A19U G71C G133A | ≤ -4.2
A19U G80C C93A | ≤ -4.2
A19U G81A | -0.839
A19U G84U C114A | ≤ -4.2
A19U G94A | -1

Variant | polymerase ribozyme fitness (log ratio)
A19U G94U A97U U104A U151C | ≤ -4.2
A19U G141A | 0.304
A19U U31C G46A C96U C131U U139G | -2.16
A19U U33A C38U G68A C76U G88A C114G G143A | ≤ -4.2
A19U U33G G58C G59U G84U C96U G136U C149G | ≤ -4.2
A19U U44C G46U A66C G68C G83A C125U | ≤ -4.2
A19U U45A G83C | -3.67
A19U U56A A91U C103G | ≤ -4.2
A19U U56A G74A C85G A107U G126U | ≤ -4.2
A20C A21U A23C C51A C123A A138U | ≤ -4.2
A20C A21U A24U A26U | ≤ -4.2
A20C A23C C76A U82A C85U A89U C93U U146C | ≤ -4.2
A20C A24C C51A G74C G94U A121U U135G U148C | ≤ -4.2
A20C A24U U44A G88A C93U | ≤ -4.2
A20C A26C G128U U144G | ≤ -4.2
A20C A26G G92U | ≤ -4.2
A20C A26U A29G C75A C79U A89G G94A U151G | ≤ -4.2
A20C A28C G83C C118G | ≤ -4.2
A20C A29C C54A G68A A115G | ≤ -4.2
A20C A29C C87G A122G G140U | ≤ -4.2
A20C A29U A47U U77C C93G A120U G133A A142G | ≤ -4.2
A20C A29U C57U C96U | ≤ -4.2
A20C A29U G74C C87U C93G C96A U135G U148A | ≤ -4.2
A20C A30G G50U C95G A147G | ≤ -4.2

Variant | polymerase ribozyme fitness (log ratio)
A20C A30U C32U U55A C96G A97C C105A A107C G117C C125U | ≤ -4.2
A20C A39C G59C G84U A89C A106U | ≤ -4.2
A20C A39U A107U G126U G141C | ≤ -4.2
A20C A47C | -0.462
A20C A47C G50C G84A C93A U111G | ≤ -4.2
A20C A47U C51U C105U U144A | -2.59
A20C A49C A52C C57U C76A G88A A106G G126C U145G | ≤ -4.2
A20C A49G | -0.512
A20C A49U A60C | -3.14
A20C A52U U90G | ≤ -4.2
A20C A60C C85A | -2.66
A20C C27G G94A C96G C105G A115G | ≤ -4.2
A20C C35U C54A C75G A89C G133U | ≤ -4.2
A20C C43G G83A | ≤ -4.2
A20C C43U C93G G141A | ≤ -4.2
A20C C43U G46U C69U C85U G86U A89G | ≤ -4.2
A20C C54U C95U G140U | -3.23
A20C C57U A66C C116A U135G A137U | ≤ -4.2
A20C C85U A122C G133A G140C | ≤ -4.2
A20C C87A G100A | ≤ -4.2
A20C C87G | ≤ -4.2
A20C C93G | -3.89
A20C C93U | -1.41
A20C G42C G58U C87G C103U A138C | ≤ -4.2

Variant | polymerase ribozyme fitness (log ratio)
A20C G48C C75G G83A C118A C131A | ≤ -4.2
A20C G50C C69U | ≤ -4.2
A20C G50U G81C C103U A120U | -2
A20C G62A G86U | -2.06
A20C G70C G80A U90C G133C | ≤ -4.2
A20C G81C C87U | -1.28
A20C G83A A107G A120C G126U | ≤ -4.2
A20C G83U A89U A97U | -2.13
A20C G94C C99G G128U | ≤ -4.2
A20C U31G A40U | -0.279
A20C U31G A49C A52C U53C | ≤ -4.2
A20C U33G U45G C51U G58C G70A C95U A98G G117C | ≤ -4.2
A20C U44G A52G C57U C85A A89G U139C | ≤ -4.2
A20C U45A C75G C95U C99U C108U | ≤ -4.2
A20C U53A | -2.16
A20C U53A U55A | -2.52
A20C U55G C57U C63G A66U G94C U104G | ≤ -4.2
A20C U130G U144C | -4.14
A20G A21C G84U C95G G117U | -0.439
A20G A21U A26U A29U A39C A91G G94U A97G C99A C131A A142G | ≤ -4.2
A20G A22C G50U C99U A137C | ≤ -4.2
A20G A22U C87U | -2.33
A20G A22U G59A C93G A98G A137G U139G | ≤ -4.2
A20G A24C C51A G68A U82A A106U C123A U151G | ≤ -4.2

Variant | polymerase ribozyme fitness (log ratio)
A20G A24G C51U C85U A120U C149G | ≤ -4.2
A20G A24G C93U A115U G124U | ≤ -4.2
A20G A24U A26U U148G | ≤ -4.2
A20G A26U A39C G86C A150C | ≤ -4.2
A20G A26U C38U U44A G94U | ≤ -4.2
A20G A26U U82G U101A C105U A120U A138U | ≤ -4.2
A20G A28G U90A C93A C95G A106U C123U | ≤ -4.2
A20G A29U C51A A106C A113U | -4.2
A20G A30C U77C C85U A120G A150U | ≤ -4.2
A20G A30U C32G C35G C57G C95A C114U | ≤ -4.2
A20G A40C A41G A49C C76G G88A C96U | ≤ -4.2
A20G A52C G67A C87U C131U G141C | ≤ -4.2
A20G A66G G84A G141C U145A | ≤ -4.2
A20G A89G C95U G100U | ≤ -4.2
A20G A91G G124C G143C | ≤ -4.2
A20G C27A G50A A52U C93G C118U | ≤ -4.2
A20G C36U A52C G59A C75A | ≤ -4.2
A20G C36U C38A G58U C95U A110G A150C | ≤ -4.2
A20G C57G A66C G94A C132U | ≤ -4.2
A20G C63U G65U G83A C149A | ≤ -4.2
A20G C87G C131G | ≤ -4.2
A20G C96A | -1.84
A20G G34C C38A C76U U90C C114U | ≤ -4.2
